According to paper PMC6919601, “Identification of Plasmodium dipeptidyl aminopeptidase allosteric inhibitors by high throughput screening” (PLoS ONE, 2019):
“And” between values parts separate entries of the source, which are not always exact repeats. Identical values can stand only once. The whole screen tested about 110,000 compounds, of which about 230 (0.21%) showed an effect of 50% or more. Some of the results follow.

molecular target: DPAP1 (Plasmodium falciparum, UniProt Q8IIJ9); experiment: primary screen, percent inhibition; read by cleavage of a fluorogenic dipeptide substrate; higher = more effect of the substance; design: species or system P. falciparum D10 trophozoite lysates; single well
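Note: 30 min substrate incubation versus DMSO and 10 µM JCP410 controls.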

Sequence of DPAP1 (Q8IIJ9 whole entry, looked up): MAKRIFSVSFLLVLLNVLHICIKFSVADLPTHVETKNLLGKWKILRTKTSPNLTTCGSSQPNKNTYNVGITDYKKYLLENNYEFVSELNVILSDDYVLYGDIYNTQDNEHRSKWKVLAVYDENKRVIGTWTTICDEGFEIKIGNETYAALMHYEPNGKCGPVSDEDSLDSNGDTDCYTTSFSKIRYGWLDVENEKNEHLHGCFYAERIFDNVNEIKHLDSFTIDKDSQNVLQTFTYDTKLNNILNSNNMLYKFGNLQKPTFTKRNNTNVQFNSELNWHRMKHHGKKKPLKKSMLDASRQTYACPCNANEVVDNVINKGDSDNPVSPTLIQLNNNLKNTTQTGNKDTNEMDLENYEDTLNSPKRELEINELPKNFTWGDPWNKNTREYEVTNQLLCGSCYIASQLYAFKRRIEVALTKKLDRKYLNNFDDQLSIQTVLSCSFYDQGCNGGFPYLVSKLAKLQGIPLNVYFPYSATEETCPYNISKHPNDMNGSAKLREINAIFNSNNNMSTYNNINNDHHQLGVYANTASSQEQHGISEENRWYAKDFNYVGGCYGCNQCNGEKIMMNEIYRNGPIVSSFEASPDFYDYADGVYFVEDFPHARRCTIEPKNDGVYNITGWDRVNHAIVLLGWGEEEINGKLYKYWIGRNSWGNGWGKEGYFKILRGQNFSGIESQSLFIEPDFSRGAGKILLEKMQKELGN

| SMILES | % Inhibition @ 10 uM |
| --- | --- |
| CN(C)C1(c2cccs2)CS(=O)(=O)C1 | -1.74% |
| COc1cccc(-c2cc(C(=O)O)c3cc(Br)ccc3n2)c1 | 3.53% |
| CCOc1ccc2oc(=O)cc(CN3CCN(C(=O)c4ccccc4Br)CC3)c2c1 | 3.88% |
| CCc1ccccc1N(CC(=O)N1CCN(c2ccccc2OC)CC1)S(C)(=O)=O | -8% |
| CCOc1ccccc1NC(=O)CN(c1ccc(C)cc1)S(=O)(=O)c1ccc(F)cc1 | 0.324% |
| COC(Cc1ccccc1OC(C)C)C(=O)c1ccccc1 (stereo not drawn) | -0.303% |
| Cc1ccc(C(=O)NCc2ccc3c(c2)OCO3)cc1Cl | -3.78% |
| CC(CN(CCO)CCO)c1ccccc1 (stereo not drawn) | 3.48% |
| C=C(C)COc1ccc(C2C3CN(C)CC=C3C(C#N)=C(N)C2(C#N)C#N)cc1OC (stereo not drawn) | -3.07% |
| Cc1ccccc1OCC(=O)OCC(=O)c1ccc([N+](=O)[O-])cc1 | -3.55% |
| CC1CCCC(NC(=O)CCn2nc(-c3ccc(Cl)cc3)ccc2=O)C1C (stereo not drawn) | 6.32% |
| C=Cc1ccc(Cn2c(C(=O)O)c(CNCc3cc(OC)ccc3OC)c3ccccc32)cc1 | 2.27% |
| CCN(CC)CCCNC(=O)C1CCC(CNS(=O)(=O)c2c(C)cc(C)cc2C)CC1 (stereo not drawn) | -2.72% |
| COc1ccc(CC2C(=O)NC(=S)NC2=O)cc1 | 3.32% |
| Cc1nc2c(c(C)nn2-c2ccccc2)c(C)c1CCC(=O)NCCC(C)C | 2.57% |
| CC1=C(C#N)C(=O)N(C)C(=O)/C1=C\Nc1ccc(C(=O)N(C)C)cc1 | 5.89% |
| COc1ccc(CNCc2c(C(=O)O)n(Cc3cccc(F)c3)c3cc(OC)ccc23)c(OC)c1 | -3.88% |
| CCCSc1ncc(Cl)c(C(=O)N(Cc2ccccc2)Cc2ccco2)n1 | -0.45% |
| O=C1CCCC/C1=C/Nc1ccc(F)cc1F | -2.77% |
| COc1ccc(C(=O)N/C(=C\c2ccccc2)C(=O)Nc2ccc(C)cc2)cc1 | 5.49% |
| O=C(CSc1ncnc2sc3c(c12)CCCCC3)N1CCOCC1 | 0.493% |

| SMILES | % Inhibition @ 10 uM |
| --- | --- |
| COc1ccc(-c2onc(C)c2C)cc1S(=O)(=O)NCc1ccc(Cl)cc1 | -7.06% |
| CCN(CCN(C)C)Cc1cccc(C)c1 | -1.78% |
| Cn1c(=O)c2c(n3nnnc13)-c1ccccc1CC21CCCC1 | 4.08% |
| CCCCNC(=O)C(=O)c1c[nH]c2ccccc12 | 5.44% |
| CC(C)(C)c1cc(CN2CCN(c3ccccc3)CC2)cc(C(C)(C)C)c1O | -0.969% |
| c1ccc2oc(-c3ccc(-c4nc5ccccc5o4)c4ccccc34)nc2c1 | -0.828% |
| O=C(NC12CC3CC(CC(C3)C1)C2)N1CCN(C(=O)c2ccco2)CC1 | 0.163% |
| CCCCN(C)C(=O)C(CC1CCCCC1)C(=O)NCC#N (stereo not drawn) | -6.98% |
| CC(C)(C)c1ccc(S(=O)(=O)c2cc3cc(Br)ccc3oc2=O)cc1 | -3.1% |
| COc1ccc(-n2nnc(-c3nc(-c4ccncc4)no3)c2N)cc1Cl | 3.98% |
| Cc1ccccc1NC(=O)C(C)Oc1ccccc1C (stereo not drawn) | -4.02% |
| Cc1noc(NS(=O)(=O)c2ccc(NC(=O)CSc3nc4ccccc4[nH]3)cc2)c1C | -4.7% |
| Cc1[nH]c2ccc([N+](=O)[O-])cc2c1-c1ccccc1 | 4.08% |
| CSc1nc(-c2ccco2)nn1S(=O)(=O)c1ccccc1 | 0.658% |
| COc1ccccc1CNC(=O)Cn1nc(Cc2ccncc2)c2ccccc2c1=O | -1.21% |
| CC(=O)N(Cc1cc2ccccc2nc1O)c1ccccc1 | 1.37% and 1.19% |
| CC(NC(=O)C(=O)N1CCOCC1)C(c1cccs1)N1CCN(Cc2ccccc2)CC1 (stereo not drawn) | 0.66% |
| O=C1CC(c2ccc(Cl)cc2)c2ccc3ccccc3c2N1 (stereo not drawn) | 1.36% |
| CCN(Cc1ccncc1)C(=O)c1ccccc1 | 1.9% |
| CCSc1c(O)cnn(-c2ccccc2)c1=O | 1.38% |
| O=C(c1ccccc1)c1cnc2cc3c(cc2c1S(=O)(=O)c1ccc(Cl)cc1)OCO3 | -5.2% |

| SMILES | % Inhibition @ 10 uM |
| --- | --- |
| Fc1ccc(-c2ncnn2-c2ccc(Br)cc2F)cc1 | -0.0953% |
| COc1cccc(C(=O)NC(=O)OCCN2C(=O)c3ccccc3C2=O)c1 | -0.834% |
| CC(C)OCCCNC(=O)Nc1cn(C)c(=O)c2ccccc12 | 5.62% |
| Cc1ccc2[nH]c3c(c2c1)CCCC3NCC12CC3CC(CC(C3)C1)C2 (stereo not drawn) | 6.33% |
| COc1cc(OC)cc(C(=O)Nc2ccc(Cl)c(Cl)c2)c1 | 1.39% |
| COCCOC(=O)C1=C(C)OC(N)=C(C#N)C1c1ccc(Br)cc1 (stereo not drawn) | 2.7% |
| Cc1cccc(OCC(O)Cn2c(N)nc3c2c(=O)n(C)c(=O)n3C)c1 (stereo not drawn) | 3.93% |
| c1ccc(CNc2cc(OCc3ccccc3)cc(OCc3ccccc3)c2)cc1 | -5.46% |
| CC(=O)c1nnn(-c2nonc2NC(=O)CN2CCOCC2)c1C | -4.73% |
| CCOc1ccc(C2CC(=O)N3CN(C(C)c4ccccc4)CSC3=C2C#N)cc1 (stereo not drawn) | 53.1% |
| CC1=C(C(=O)NCc2ccccc2)C2(CCCCCC2)OC1=O | 1.35% |
| CC(NC(=O)C1CCN(S(=O)(=O)N2CCC3(CC2)OCCO3)CC1)c1ccccc1 (stereo not drawn) | -1.21% |
| CCCCN(C)CCCNC(=O)C1CCN(C2=NS(=O)(=O)C(c3ccc(C)c(C)c3)=C2C)CC1 | -1.97% |
| O=C(COc1nsnc1N1CCOCC1)NCc1cccs1 | -8.98% |
| CCCOC(=O)c1ccc(NC(=O)c2ccc(C)cc2)cc1 | -0.856% |
| Cc1c2cnn(CC(=O)NC3CCC(C)CC3)c(=O)c2c(C)n1Cc1ccccc1F (stereo not drawn) | -5.81% |
| COc1cc2c(cc1OC)-c1nnc(-c3ccco3)n1C(C)(C)C2 | -0.969% |
| COc1cc2c(cc1OC)CN(C(=O)c1oc3ccccc3c1C)CC2 | -6.5% |
| COc1ccc(CCN2C(=O)CC(N3CCC(C(N)=O)CC3)C2=O)cc1OC (stereo not drawn) | -1.78% |
| Cc1ccc2c(nc3s/c(=C\c4ccc(Cl)cc4Cl)c(=O)n32)c1C | -3.14% |
| CN1C(=O)C(=Cc2ccc(Br)cc2)C(=O)N(C)C1=O | 4.41% |
